Measurements published in paper PMC8121856.
These are yes or no findings as the source states them, for the method shown. For some assays here: Binding seen in cells or lysates may run through a third protein. Some results given as binding are weak or reduced against the parent protein; the word gives no strength. Tags and fused reporters may be left off the sequences shown. Values belong to the molecule of their own block, whether it stands above or below them.

What was measured:
[1] = target: T1, MISP bait (Gal4 DNA-binding domain fusion, pGBKT7) (human) (UniProt Q8IVT2); assay: two-hybrid; Matchmaker system (Clontech); baits in pGBKT7, preys in pACT2; growth on -Ade/-His/-Leu/-Trp
T1 sequence: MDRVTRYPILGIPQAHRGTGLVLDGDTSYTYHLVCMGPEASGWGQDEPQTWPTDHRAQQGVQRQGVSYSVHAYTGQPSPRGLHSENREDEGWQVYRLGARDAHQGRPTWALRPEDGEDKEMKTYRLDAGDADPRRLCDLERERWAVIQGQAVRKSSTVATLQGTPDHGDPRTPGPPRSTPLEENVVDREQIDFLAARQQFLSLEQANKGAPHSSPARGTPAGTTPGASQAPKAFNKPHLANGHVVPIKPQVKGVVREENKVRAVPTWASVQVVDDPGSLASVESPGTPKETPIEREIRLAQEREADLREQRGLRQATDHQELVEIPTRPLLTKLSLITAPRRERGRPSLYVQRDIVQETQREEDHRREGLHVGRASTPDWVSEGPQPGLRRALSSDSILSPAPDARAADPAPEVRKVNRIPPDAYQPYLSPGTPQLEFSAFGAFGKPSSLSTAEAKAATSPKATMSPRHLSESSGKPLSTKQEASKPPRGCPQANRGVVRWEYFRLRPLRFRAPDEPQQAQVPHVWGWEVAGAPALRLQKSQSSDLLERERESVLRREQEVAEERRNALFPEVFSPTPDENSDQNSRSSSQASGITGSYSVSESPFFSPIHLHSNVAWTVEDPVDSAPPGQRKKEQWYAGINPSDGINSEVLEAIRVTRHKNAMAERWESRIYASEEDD

[2] = target: Flag or HA-tagged PLK1 (co-expressed for co-immunoprecipitation) (UniProt P53350); assay: co-IP; Flag or HA-tagged SHCBP1, PLK1 and/or MISP co-expressed in HEK293T cells synchronised to the mitotic phase with 40 ng/mL nocodazole; anti-Flag M2 agarose
[3] = target: PLK1 expressed in E. coli for the GST pulldown (UniProt P53350); assay: pull-down; GST pulldown (Pierce GST protein interaction pulldown kit) with 6His-GST-SHCBP1 and PLK1 or MISP expressed in E. coli; Coomassie staining and immunoblotting; also with TFBG
eCFP-Shc1 = target: T2, eCFP-Shc1 (UniProt P29353); assay: FRET or BRET; acceptor photobleaching FRET of eCFP-Shc1 and eYFP-SHCBP1 in transfected cells; 100 ng/mL EGF for the indicated times and/or trastuzumab
T2 sequence: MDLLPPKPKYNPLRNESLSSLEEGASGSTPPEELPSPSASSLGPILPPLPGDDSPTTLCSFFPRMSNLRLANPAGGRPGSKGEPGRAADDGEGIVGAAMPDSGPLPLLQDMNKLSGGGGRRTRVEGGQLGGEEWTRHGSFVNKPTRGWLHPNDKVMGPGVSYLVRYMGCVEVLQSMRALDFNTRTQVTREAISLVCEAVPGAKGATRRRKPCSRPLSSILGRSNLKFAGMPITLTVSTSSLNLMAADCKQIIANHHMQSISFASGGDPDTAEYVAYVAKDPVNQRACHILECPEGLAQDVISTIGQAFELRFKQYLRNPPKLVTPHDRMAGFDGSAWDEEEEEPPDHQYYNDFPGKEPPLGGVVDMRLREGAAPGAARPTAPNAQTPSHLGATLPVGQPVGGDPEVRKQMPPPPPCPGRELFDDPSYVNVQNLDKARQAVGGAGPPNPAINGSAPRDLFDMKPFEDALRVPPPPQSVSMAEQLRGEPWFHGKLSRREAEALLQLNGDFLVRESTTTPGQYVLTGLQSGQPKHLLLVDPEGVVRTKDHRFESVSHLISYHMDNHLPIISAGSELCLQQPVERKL

binding [1]: binds
Molecule: PLK1 prey (Gal4 activation domain fusion, pACT2) (from UniProt P53350 1-603) (enzyme)

binding [2]: binds
B1: Flag or HA-tagged MISP (co-expressed in HEK293T) (protein, UniProt Q8IVT2 1-679)
chain: MDRVTRYPILGIPQAHRGTGLVLDGDTSYTYHLVCMGPEASGWGQDEPQTWPTDHRAQQGVQRQGVSYSVHAYTGQPSPRGLHSENREDEGWQVYRLGARDAHQGRPTWALRPEDGEDKEMKTYRLDAGDADPRRLCDLERERWAVIQGQAVRKSSTVATLQGTPDHGDPRTPGPPRSTPLEENVVDREQIDFLAARQQFLSLEQANKGAPHSSPARGTPAGTTPGASQAPKAFNKPHLANGHVVPIKPQVKGVVREENKVRAVPTWASVQVVDDPGSLASVESPGTPKETPIEREIRLAQEREADLREQRGLRQATDHQELVEIPTRPLLTKLSLITAPRRERGRPSLYVQRDIVQETQREEDHRREGLHVGRASTPDWVSEGPQPGLRRALSSDSILSPAPDARAADPAPEVRKVNRIPPDAYQPYLSPGTPQLEFSAFGAFGKPSSLSTAEAKAATSPKATMSPRHLSESSGKPLSTKQEASKPPRGCPQANRGVVRWEYFRLRPLRFRAPDEPQQAQVPHVWGWEVAGAPALRLQKSQSSDLLERERESVLRREQEVAEERRNALFPEVFSPTPDENSDQNSRSSSQASGITGSYSVSESPFFSPIHLHSNVAWTVEDPVDSAPPGQRKKEQWYAGINPSDGINSEVLEAIRVTRHKNAMAERWESRIYASEEDD

binding [3]: binds
B2: MISP expressed in E. coli for the GST pulldown (protein, UniProt Q8IVT2 1-679)
chain: MDRVTRYPILGIPQAHRGTGLVLDGDTSYTYHLVCMGPEASGWGQDEPQTWPTDHRAQQGVQRQGVSYSVHAYTGQPSPRGLHSENREDEGWQVYRLGARDAHQGRPTWALRPEDGEDKEMKTYRLDAGDADPRRLCDLERERWAVIQGQAVRKSSTVATLQGTPDHGDPRTPGPPRSTPLEENVVDREQIDFLAARQQFLSLEQANKGAPHSSPARGTPAGTTPGASQAPKAFNKPHLANGHVVPIKPQVKGVVREENKVRAVPTWASVQVVDDPGSLASVESPGTPKETPIEREIRLAQEREADLREQRGLRQATDHQELVEIPTRPLLTKLSLITAPRRERGRPSLYVQRDIVQETQREEDHRREGLHVGRASTPDWVSEGPQPGLRRALSSDSILSPAPDARAADPAPEVRKVNRIPPDAYQPYLSPGTPQLEFSAFGAFGKPSSLSTAEAKAATSPKATMSPRHLSESSGKPLSTKQEASKPPRGCPQANRGVVRWEYFRLRPLRFRAPDEPQQAQVPHVWGWEVAGAPALRLQKSQSSDLLERERESVLRREQEVAEERRNALFPEVFSPTPDENSDQNSRSSSQASGITGSYSVSESPFFSPIHLHSNVAWTVEDPVDSAPPGQRKKEQWYAGINPSDGINSEVLEAIRVTRHKNAMAERWESRIYASEEDD

binding (eCFP-Shc1): binds
B3: eYFP-SHCBP1 (protein, UniProt Q8NEM2 1-672)
chain: MADGSLTGGGLEAAAMAPERMGWAVEQELASLEKGLFQDEDSCSDCSYRDKPGSSLQSFMPEGKTFFPEIFQTNQLLFYERFRAYQDYILADCKASEVQEFTAEFLEKVLEPSGWRAVWHTNVFKVLVEITDVDFAALKAVVRLAEPYLCDSQVSTFTMECMKELLDLKEHRLPLQELWVVFDDSGVFDQTALAIEHVRFFYQNIWRSWDEEEEDEYDYFVRCVEPRLRLHYDILEDRVPSGLIVDYHNLLSQCEESYRKFLNLRSSLSNCNSDSEQENISMVEGLKLYSEMEQLKQKLKLIENPLLRYVFGYQKNSNIQAKGVRSSGQKITHVVSSTMMAGLLRSLLTDRLCQEPGEEEREIQFHSDPLSAINACFEGDTVIVCPGHYVVHGTFSIADSIELEGYGLPDDIVIEKRGKGDTFVDCTGADIKISGIKFVQHDAVEGILIVHRGKTTLENCVLQCETTGVTVRTSAEFLMKNSDLYGAKGAGIEIYPGSQCTLSDNGIHHCKEGILIKDFLDEHYDIPKISMVNNIIHNNEGYGVVLVKPTIFSDLQENAEDGTEENKALKIQTSGEPDVAERVDLEELIECATGKMELCARTDPSEQVEGNCEIVNELIAASTQKGQIKKKRLSELGITQADDNLMSQEMFVGIVGNQFKWNGKGSFGTFLF

binding [1]: no binding
B4: SHCBP1 prey (Gal4 activation domain fusion, pACT2) (protein, UniProt Q8NEM2 1-672)
chain: MADGSLTGGGLEAAAMAPERMGWAVEQELASLEKGLFQDEDSCSDCSYRDKPGSSLQSFMPEGKTFFPEIFQTNQLLFYERFRAYQDYILADCKASEVQEFTAEFLEKVLEPSGWRAVWHTNVFKVLVEITDVDFAALKAVVRLAEPYLCDSQVSTFTMECMKELLDLKEHRLPLQELWVVFDDSGVFDQTALAIEHVRFFYQNIWRSWDEEEEDEYDYFVRCVEPRLRLHYDILEDRVPSGLIVDYHNLLSQCEESYRKFLNLRSSLSNCNSDSEQENISMVEGLKLYSEMEQLKQKLKLIENPLLRYVFGYQKNSNIQAKGVRSSGQKITHVVSSTMMAGLLRSLLTDRLCQEPGEEEREIQFHSDPLSAINACFEGDTVIVCPGHYVVHGTFSIADSIELEGYGLPDDIVIEKRGKGDTFVDCTGADIKISGIKFVQHDAVEGILIVHRGKTTLENCVLQCETTGVTVRTSAEFLMKNSDLYGAKGAGIEIYPGSQCTLSDNGIHHCKEGILIKDFLDEHYDIPKISMVNNIIHNNEGYGVVLVKPTIFSDLQENAEDGTEENKALKIQTSGEPDVAERVDLEELIECATGKMELCARTDPSEQVEGNCEIVNELIAASTQKGQIKKKRLSELGITQADDNLMSQEMFVGIVGNQFKWNGKGSFGTFLF
